# About 2,200 (0.71%) of roughly 310,000 compounds showed an effect of 50% or more. Effects have a minus sign here. This is one part of the list.
# Molecular target: human ether-à-go-go-related gene (hERG) potassium channel (human, UniProt Q12809)
# Test: primary screen, population patch clamp on CHO cells stably expressing hERG
# Chain of human ether-à-go-go-related gene (hERG) potassium channel (Q12809 whole entry, looked up): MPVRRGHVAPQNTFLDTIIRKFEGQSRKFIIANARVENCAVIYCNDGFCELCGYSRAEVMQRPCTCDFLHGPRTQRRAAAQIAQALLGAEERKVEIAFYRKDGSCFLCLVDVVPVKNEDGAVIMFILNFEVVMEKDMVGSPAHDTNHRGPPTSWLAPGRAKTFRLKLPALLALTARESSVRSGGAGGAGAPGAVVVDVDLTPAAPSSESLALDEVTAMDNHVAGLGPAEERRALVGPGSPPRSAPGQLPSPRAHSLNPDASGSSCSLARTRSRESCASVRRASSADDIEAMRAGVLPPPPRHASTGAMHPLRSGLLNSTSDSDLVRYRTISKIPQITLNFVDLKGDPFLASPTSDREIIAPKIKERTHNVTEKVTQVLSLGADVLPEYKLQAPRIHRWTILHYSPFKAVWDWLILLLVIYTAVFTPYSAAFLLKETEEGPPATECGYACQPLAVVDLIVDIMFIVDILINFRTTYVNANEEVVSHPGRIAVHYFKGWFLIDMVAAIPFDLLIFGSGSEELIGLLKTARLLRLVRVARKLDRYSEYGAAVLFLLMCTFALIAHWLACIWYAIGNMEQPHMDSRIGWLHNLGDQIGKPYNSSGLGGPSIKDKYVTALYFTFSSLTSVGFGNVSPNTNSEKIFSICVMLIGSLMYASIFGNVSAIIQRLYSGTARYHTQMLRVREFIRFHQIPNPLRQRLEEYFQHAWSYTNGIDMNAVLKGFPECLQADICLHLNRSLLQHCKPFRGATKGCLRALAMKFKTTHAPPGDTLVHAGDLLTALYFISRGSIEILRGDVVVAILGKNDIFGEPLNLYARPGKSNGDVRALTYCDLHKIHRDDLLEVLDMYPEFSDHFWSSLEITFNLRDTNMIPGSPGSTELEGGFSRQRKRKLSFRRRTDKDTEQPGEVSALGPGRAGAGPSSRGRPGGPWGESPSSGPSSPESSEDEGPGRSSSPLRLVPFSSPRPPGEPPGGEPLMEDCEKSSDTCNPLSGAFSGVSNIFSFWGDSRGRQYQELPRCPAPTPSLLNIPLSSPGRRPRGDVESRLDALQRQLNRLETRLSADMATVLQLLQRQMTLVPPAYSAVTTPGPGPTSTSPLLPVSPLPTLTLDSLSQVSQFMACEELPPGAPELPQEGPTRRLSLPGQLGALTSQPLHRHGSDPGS
row,Structure (SMILES),"hERG current change (%, negative = inhibition) at 1uM"
1,Cc1cccc(NC(=O)c2nc[nH]c2C(=O)N2CCC(C)CC2)c1,15%
2,O=C1SCC(c2ccccc2)=NN1Cc1ccccc1,18.1%
3,FC(F)(F)c1cccnc1N1CCN(c2ncnc3nc[nH]c23)CC1,15.2%
4,CCOc1ccc(CNC(=O)CCCn2nc(CC)n3c(cc4occc43)c2=O)cc1,8.06%
5,COc1ccccc1N=C1NC(=O)/C(=C/c2ccc(N(C)C)cc2)S1,11.3%
6,O=C(c1ccco1)N1CCN(C(=S)NC2CC3CCC2C3)CC1 (stereo not shown),-8.53%
7,CSCCC(NS(=O)(=O)/C=C/c1ccccc1)C(=O)N1CCC(C)CC1 (stereo not shown),-7.28%
8,Clc1ccc(Cn2ccc3ccccc32)cn1,7.09%
9,CCCCN(CC)C(=O)c1cc2c(=O)[nH]c3ccc(C)cc3c2s1,14.2%
10,CCOC(=O)/C(C#N)=C1\CCCN1CC(N)=S,7.15%
11,NC(=O)c1nsc(C(=O)N(c2ccccc2)C(C(=O)NCc2ccc(F)cc2)c2ccco2)c1N (stereo not shown),15.4%
12,CCN(CC)C(=O)CN(c1ccc(Cl)cc1)S(=O)(=O)c1ccccc1,4.6%
13,O=C(COC(=O)CNS(=O)(=O)/C=C/c1ccccc1)Nc1cc(S(=O)(=O)N2CCCCC2)ccc1Cl,14.6%
14,CC(C)Cc1nnc(NC(=O)CN2C(=O)NC3(CC(C)CC(C)(C)C3)C2=O)s1 (stereo not shown),6.76%
15,CCN(CC)C(=O)Oc1cc(=O)n2c3c(cccc13)CCC2,9.66%
16,CC(=O)c1cc(CN2CCN(C3CCN(C(C)C)CC3)C(CCO)C2)cs1 (stereo not shown),-3.84%
17,COc1ccc(O)c(/C=N/NC(=O)c2c(C)nnn2-c2nonc2N)c1,20.2%
18,O=C(NCCS(=O)(=O)NC1CCCCC1)c1ccccc1,1.61%
19,Fc1ccccc1NC(=S)NN(Cc1ccccc1)c1ccccc1,-16.2%
20,Cc1ccc(OCC(=O)Nc2cc(-c3nn4c(C)nnc4s3)ccc2C)cc1,-2.75%
21,Cc1ccc(/C=N/n2c(C3CCCCC3)n[nH]c2=S)o1,11.8%
22,CN(C)S(=O)(=O)c1cccc(C(=O)NC2CCSc3ccccc32)c1 (stereo not shown),5.86%
23,COc1cccc(N2C(=O)CC(NNc3nc4ccccc4s3)C2=O)c1 (stereo not shown),7.66%
24,O=S1(=O)N=C(N2CCOCC2)c2ccccc21,0.94%
25,Cc1onc(-c2ccccc2)c1C(=O)Nc1ccccc1N1CCOCC1,1.67%

# — article PMC4336329 (PLoS ONE, 2015)
